Data from paper PMC12136788.
This is one part of the list.

T1: UNK ZnF1-3 (human, UniProt Q9C0B0 31-174)
T1 sequence: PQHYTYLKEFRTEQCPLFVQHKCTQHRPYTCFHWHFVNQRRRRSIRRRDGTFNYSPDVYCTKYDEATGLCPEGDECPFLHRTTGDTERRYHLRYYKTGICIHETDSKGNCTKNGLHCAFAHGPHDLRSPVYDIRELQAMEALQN

B1: chr9:80412558:80412559:-_ENSG00000156052_ENST00000286548|hu_hu|motif|central (ssRNA)
RNA: GGGAGUUCUACAGUCCGACGAUCGGUGGGGACUCGAACUCUAAGCACAUCUUGUUGCGUAGGCAGGUAGGCAGGGUCAGCGGCGCGGUCCAAGUCAUUAAGAUAGUAUUUGGUAGAGUCAGAUAAUUGAUAUUCUCGUCGUCUCAACAGAGGAUUGAGCAUCA
B2: chr10:126435856:126435857:+_ENSMUSG00000078429_ENSMUST00000105256|mus_mus|FALSE|FALSE (ssRNA)
RNA: GGGAGUUCUACAGUCCGACGAUCAGUGGAAACCCUUACCUGGCCCUUUAUCAAACUGGUCCUGUGUCCAAAGCUCCCCCUAUAAGAGGGACAGGAACGUCAGGCUUUUGAUGCGAAGCCCAAUCAGACACACACUGUGUCCCUCAACAGAGGAUUGAGCAUCA
B3: chr6:75965845:75965846:-_ENSG00000112697_ENST00000230461|hu_hu|motif|central (ssRNA)
RNA: GGGAGUUCUACAGUCCGACGAUCAUUUGCUUUCAUAAUAUAAAAUUAAAUGGUAAUGUCAGCUGUAUUACUACUGUUUCGGUAUUUAUGAUUAAUUACUAGCAGUACAACUCCCAGAAGGAAGGAGAUGGAUCCAACAGCGAUCAACAGAGGAUUGAGCAUCA
B4: chr5:145543945:145543946:-_ENSG00000133706_ENST00000545646|hu_hu|hu_hu_hu_mus_True|48_68 (ssRNA)
RNA: GGGAGUUCUACAGUCCGACGAUCCUGAACGGCCAGUGGUGGGAAAUAAUCAAGCCAGUGCUCUGCUUCAGAAAAUUUCACUAUGUCUUCAUCAGACAGCCCAAGGGAUUUCAUAAUGUCCCACUGGUACUUAGAAGAUCCUGCCAACAGAGGAUUGAGCAUCA
B5: chr11:2966284:2966285:-_ENSG00000205531_ENST00000380542|hu_hu|FALSE|FALSE (ssRNA)
RNA: GGGAGUUCUACAGUCCGACGAUCAGGUGACCCGCAGCAGCUCUCACCUGGGCUGGUGUGUCACAACCCUGACCCACCCCUAAAAAAAAAAAAAAAUCAAGAAGCAACAUCCUAAGGAGAACAGGGCCCUACUCUACACAGCCCCAACAGAGGAUUGAGCAUCA
B6: 151805286_151807646_1166_CDS_ENSG00000178234_ENST00000430044|human|control|control (ssRNA)
RNA: GGGAGUUCUACAGUCCGACGAUCCAUGGCAAACAAACCUCCAGCCAUUGUUGGUGACUUUAUUGGUGCAGUGGCUCCCUCCGCUCGUCCUAGCUCAGAAAGGGGGACAAGAUCCCAUUUGAAGUGCAGUCCCCAGUUGAACCCCAACAGAGGAUUGAGCAUCA
B7: chr10:106022761:106022762:+_ENSG00000148834_ENST00000369713|hu_hu|motif|central (ssRNA)
RNA: GGGAGUUCUACAGUCCGACGAUCAAAUUCUUUACGAAAUUCUUCUUUUAGGCCAGCAUAGUCUUCUUUAUUUUGGCUUCGGAUAAAGCUUCCUACCAAGGAUGGCACCUUAGAAAACAACUCUAAGAUCAUCUUCUGGCAAGCCAACAGAGGAUUGAGCAUCA
B8: chr15:51794541:51794542:-_ENSMUSG00000022314_ENSMUST00000022927|mus_mus|motif|central (ssRNA)
RNA: GGGAGUUCUACAGUCCGACGAUCCAUGGAAGUCUUAGUUUUAAAACUGAUUUCCCCCCCAUAAAAGUGCCAACACUUAAGCGGGAACUUUUCAACAUAAUUUUGUCCUACAAAGUGAACAUGUUUUGAUAUUUAUAUAGUCACCAACAGAGGAUUGAGCAUCA
B9: chr4:46174136:46174137:+_ENSMUSG00000028330_ENSMUST00000030014|mus_hu|FALSE|FALSE (ssRNA)
RNA: GGGAGUUCUACAGUCCGACGAUCAUCUUCCCAGCUCCAACGGAACUGGAAGUUACUUAGAUGAUGAGAAAACCAAUUAAUAAACCUGUCUACACAGGUAGUGUUCAUUGUGUCCAAACGCAUGUAUAGCAUUUCAGUUGCCUGCAACAGAGGAUUGAGCAUCA
B10: chr5:37680062:37680063:+_ENSMUSG00000029121_ENSMUST00000031004|mus_hu|mus_mus_mus_hu_False|18_18 (ssRNA)
RNA: GGGAGUUCUACAGUCCGACGAUCUUUGGGUGUAGCUGGUACCUCGUACACAGGACCGUCAUACAUGCCCCUGGAAACCCCUUGCAAUCCAAAAACCUUAUUCCUGAUUUUGACGCGCUGGUAGAGAUGCUCCGGGAACGCCUUCAACAGAGGAUUGAGCAUCA
B11: 4099149_4099269_1105_3pUTR_ENSMUSG00000001467_ENSMUST00000001507|mouse|control|control (ssRNA)
RNA: GGGAGUUCUACAGUCCGACGAUCUGGCAAUAGCCAGGCAGCGUGGGUAAAACCUCCAUCCAGGUCUGCGUACAGCUGAGCCACCUUCUCGUUGAGUUGACUUCUAAUUUCCUUUCCAUGUAAACAAUGGCUAGCUGUCAAAAUCAACAGAGGAUUGAGCAUCA
B12: chr3:148802587:148802588:-_ENSG00000071794_ENST00000310053|hu_mus|hu_hu_hu_mus_False|48_58 (ssRNA)
RNA: GGGAGUUCUACAGUCCGACGAUCUCCAACAACUUGUCCUCUCAUAGUUCCAAAUAAAACCAAAUCUUGCUCUUCAUCACUAGUUAGAAAGUCAUCUGGAGGAAUAAUGUCUUGGAAUUCAAAAUGUGGCAAGAAAGUUGAGUACAACAGAGGAUUGAGCAUCA
B13: chr5:31825596:31825597:-_ENSMUSG00000053134_ENSMUST00000065388|mus_mus|motif|central (ssRNA)
RNA: GGGAGUUCUACAGUCCGACGAUCUAGGAAGUCUAGGCAGUUCCCACAUAAGAAGCAAGCUAAGAUCACUUUAAAAAGGUGCGGGCAAAACUCUAGGACAGACAAUACUCUCCCGCCCUGCCCCAGGAGUGGUAUACGCGGCUGCAACAGAGGAUUGAGCAUCA
B14: chr20:7962013:7962014:-_ENSG00000125827_ENST00000246024|hu_mus|FALSE|FALSE (ssRNA)
RNA: GGGAGUUCUACAGUCCGACGAUCGGGUUCAGAAAAACAAAGGAUGUGGCUGGAGAAACUCUUGAAGAAGUUAUCCUGUAACUAUAGGACCCAAAAAAGAUGUUGCUUGUACCUGUCCUAUGAAACUGCCACUGCCUUUUGAAUCAACAGAGGAUUGAGCAUCA
B15: 45008640_45009124_3592_CDS_ENSMUSG00000038518_ENSMUST00000173246|mouse|control|control (ssRNA)
RNA: GGGAGUUCUACAGUCCGACGAUCUACUUUGGACACAAAGGAUCCCGGGAAGCAGACGACAAACUGCCCACUCUGCUGUACAGUCCUGUGGACCUUGAUCCCCUUCUUGCACAGCACCUCUGGGGAGAUCAUUACAUUGCUCUCCAACAGAGGAUUGAGCAUCA
B16: chr17:32333828:32333829:-_ENSMUSG00000024002_ENSMUST00000121285|mus_hu|FALSE|FALSE (ssRNA)
RNA: GGGAGUUCUACAGUCCGACGAUCUACAGUACAGCCACGGUCACACACUACCCACAGCGCGGUGGCAGCCGCUGCUCAAUGAGGAGACGAUCACACCAUUUCGGAGAUAAGCAGUGCCAUUGUGUCUGGAGGAGAAGAGAGAAUCAACAGAGGAUUGAGCAUCA
B17: 25201842_25208054_780_CDS_ENSMUSG00000059669_ENSMUST00000075954|mouse|control|control (ssRNA)
RNA: GGGAGUUCUACAGUCCGACGAUCGAUGCCUUUGUCACGACCAUACACUUUCAUCUCUUCUGGAAAAAGCUUAAAAGCAUUUAUGUACGGAAUAUGAUCCUCUUCAACAAACCUCAAAAGGUCUGAAACUGUAAUUGUUUCCCUCAACAGAGGAUUGAGCAUCA
B18: chr11:4127340:4127341:+_ENSG00000167325_ENST00000300738|hu_hu|FALSE|FALSE (ssRNA)
RNA: GGGAGUUCUACAGUCCGACGAUCAGCAUAGUCAGGGUGCUUAGUAGUCAAGGUUGCAGCUGUUUCAGCAGCCAAAGUAUCUAGUUCCACUGUGGUGACCCCACUGUACAAGCCUUGGAUUACUUUCAUGGUGAUCUGAGCAGGCAACAGAGGAUUGAGCAUCA
B19: chr10:82349929:82349930:+_ENSMUSG00000020250_ENSMUST00000020484|mus_hu|motif|central (ssRNA)
RNA: GGGAGUUCUACAGUCCGACGAUCAUAACAUUUGUUGUUAUCUCUUGACGGAAUCGUCCAUUCCAAUGGCCAAAAGUAACGGUGGUAAACCUCAAUAUUUUCUUCCCCAAACUUCUCCACAGCUUUCUCCUCAGAAAGGCCACACAACAGAGGAUUGAGCAUCA
B20: chr6:160200208:160200209:-_ENSG00000120438_ENST00000420894|hu_mus|FALSE|FALSE (ssRNA)
RNA: GGGAGUUCUACAGUCCGACGAUCAAUCCGAAGGAUGGUGAUUGCAGCCUCUGUUGCGAACUUCAGGCUCUUCACUUUAACUAUGGUUGGUUCAAACACCCCUGCUUGCUUGUUGUCUCGUGGUUUCCCAUGGACCAAAUCAAGCAACAGAGGAUUGAGCAUCA
B21: chr5:132216804:132216805:-_ENSG00000072364_ENST00000265343|hu_mus|FALSE|FALSE (ssRNA)
RNA: GGGAGUUCUACAGUCCGACGAUCAGAUAUCAGCUUGGCAUCCUGCCGAAGCCAAUGCAGUCCCUGCCGGGUGUAACGAGCCAGAUCUGUCAUGAUGCUUGCAUUAAAGAUGAGAGGGCCCAUCACUUUGUCCAGUUCAGCAAACAACAGAGGAUUGAGCAUCA
B22: chr12:105536279:105536280:+_ENSG00000136051_ENST00000332180|hu_mus|hu_hu_hu_mus_True|18_18 (ssRNA)
RNA: GGGAGUUCUACAGUCCGACGAUCAGCACUGAACAUGUAAUGUAAUCUGGCUGCAUCGACAGCAUUUUCAUAUACAUCAUCUAAAUAAAUCGGGAAGACAGCGCGAUGCCAGUAUAAAAAACAACAGUCACACUGUGCUUGGACCAACAGAGGAUUGAGCAUCA

Molecular target: T1, UNK ZnF1-3
Assay: nsRBNS (natural sequence RNA bind-n-seq); RBNS binding buffer (assumed for nsRBNS): 25 mM Tris pH 7.5, 150 mM KCl, 3 mM MgCl2, 0.01% Triton X-100, 500 ug/ml BSA, 20 U/ml SUPERase-In, 4 C; UNK is unkempt and MSI1 is Musashi-1; names of the RNAs are library labels; protein concentration not given here; high values mean tight binding

Row | Binder | binding signal
1 | B1 | 1.24 enrichment R
2 | B2 | 0.673 enrichment R
3 | B3 | 1.09 enrichment R
4 | B4 | 1.13 enrichment R
5 | B5 | 3.03 enrichment R
6 | B6 | 1.04 enrichment R
7 | B7 | 0.857 enrichment R
8 | B8 | 0.636 enrichment R
9 | B9 | 0.61 enrichment R
10 | B10 | 0.828 enrichment R
11 | B11 | 0.668 enrichment R
12 | B12 | 1.31 enrichment R
13 | B13 | 1.17 enrichment R
14 | B14 | 1.86 enrichment R
15 | B15 | 0.963 enrichment R
16 | B16 | 1.37 enrichment R
17 | B17 | 1.04 enrichment R
18 | B18 | 0.979 enrichment R
19 | B19 | 0.85 enrichment R
20 | B20 | 0.501 enrichment R
21 | B21 | 0.924 enrichment R
22 | B22 | 2.33 enrichment R
